# Measurements reported in PubChem BioAssay AID2101 (National Center for Advancing Translational Sciences (NCATS), 2009).
# Among all 330,000 compounds or so, about 300 (0.091%) were called active. This list was built around the results that the source calls inconclusive (neither active nor inactive); the mix of calls is not that of the screen. Calls follow the shape of the dose curve; as a rule, active = well fitted inhibition curve with a large enough effect; inconclusive = small, poorly fitted or top-dose-only effect, or effect the other way, or another doubt; inactive = no such curve, though single readings can be large or run the other way. Potencies of inconclusive entries are left out as doubtful fits.
# Target: Lysosomal acid glucosylceramidase (Homo sapiens) (UniProt P04062)
# Test: qHTS Assay for Inhibitors and Activators of N370S glucocerebrosidase as a Potential Chaperone Treatment of Gaucher Disease;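 as to activity change, negative = inhibition: 0% = full enzyme activity and -100% = no enzyme basal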
# Conditions: N370S GC spleen homogenate, 4MU-glucoside fluorescence; activity change, negative = inhibition: at 59.4 µM (top of the series) unless noted
# Potency is read from the fitted curve at half-maximal effect.
SMILES,Potency,"activity change, negative = inhibition"
CNc1ccc(Cl)cc1C(N)=O,"inconclusive [activator, single point]",
CC(C)NCC(O)COCCOc1ccc(C(C)(C)C)cc1 (stereo unspecified),"inconclusive [inhibitor, single point]",
Cc1ccc(C(=O)N(CC(=O)Nc2sc(C)c(C)c2C(N)=O)C2CCCC2)cc1,"inconclusive [activator, single point]",
CCOC(=O)C1(CC2CCCCO2)CCN(S(=O)(=O)c2ccc(OC)cc2)CC1 (stereo unspecified),,inconclusive: 34.4% [activator]
CCOC(=O)/C(C#N)=C\c1ccc(CC)s1,inactive,
COC(=O)c1ccc2ccn(CC(=O)NC3CCCCC3)c2c1,inactive,
CCCOc1ccc2c3c(c(=O)oc2c1OCCC)CCC3,"inconclusive [activator, single point]",
CCOc1ccc(C(C#N)N2CCOCC2)cc1OC (stereo unspecified),,inconclusive: 34.7% [activator]
CNC(=O)c1cc2ccc(OC)cc2oc1=O,"inconclusive [activator, partial curve]",
CCN(CC)/C(=N/O)NC(=O)NS(=O)(=O)c1ccc(C)cc1,"inconclusive [inhibitor, partial curve]",
COC(=O)N/N=C\c1ccc(OC/C=C/c2ccccc2)cc1,"inconclusive [inhibitor, partial curve]",
CC(=O)Nc1cc2c(ccc3ccccc32)oc1=O,"inconclusive [activator, full curve]",
CC1CCc2c(C(=O)Nc3cccc(-c4nn[nH]n4)c3)csc2C1 (stereo unspecified),"inconclusive [activator, single point]",
Cc1ccc(NC(=O)C(C)S)cc1 (stereo unspecified),"inconclusive [activator, full curve, poor fit]",
COc1ccc2c(c1)c1ncn(CCc3ccccc3)c(=O)c1n2C,"inconclusive [activator, single point]",
Cn1c2ccccc2c2cc(/C=N/NC(=O)c3cc(O)cc(O)c3)ccc21,inactive,
c1ccc(CNc2ccnc(-c3ccoc3)n2)cc1,"inconclusive [inhibitor, partial curve]",
COc1cc(O)c2c(=O)cc(-c3ccccc3)oc2c1,"inconclusive [activator, single point]",
COc1ccc(C2OC3=C(Nc4cc(C)c(C)cc4N3)C2=O)cc1 (stereo unspecified),inactive,
CC(Oc1ccc(C(C)(C)C)cc1)c1ccnc2nc(/N=C/N(C)C)nn12 (stereo unspecified),inactive,
Cn1c2ccccc2c(=O)c2cc(C#Cc3ccccn3)ccc21,"inconclusive [activator, single point]",
